Data as given in patent EP2182008A2 (ICOS Corporation, dated 2010).

Tests used:
[1] = target: T1, bovine serum albumin (bovine, UniProt P02769); assay: ELISA, detection with anti-IgG4 HP6023
T1 construct: also called BSA

[2] = target: T2, soluble ICAM-1/IgG1 fusion protein (UniProt P05362 28-480, limits assumed); assay: ELISA, detection with anti-IgG4 HP6023
T2 construct: also called ICAM-I/IgG; not shown: IgG1 portion
T2 sequence (P05362 28-480 limits assumed): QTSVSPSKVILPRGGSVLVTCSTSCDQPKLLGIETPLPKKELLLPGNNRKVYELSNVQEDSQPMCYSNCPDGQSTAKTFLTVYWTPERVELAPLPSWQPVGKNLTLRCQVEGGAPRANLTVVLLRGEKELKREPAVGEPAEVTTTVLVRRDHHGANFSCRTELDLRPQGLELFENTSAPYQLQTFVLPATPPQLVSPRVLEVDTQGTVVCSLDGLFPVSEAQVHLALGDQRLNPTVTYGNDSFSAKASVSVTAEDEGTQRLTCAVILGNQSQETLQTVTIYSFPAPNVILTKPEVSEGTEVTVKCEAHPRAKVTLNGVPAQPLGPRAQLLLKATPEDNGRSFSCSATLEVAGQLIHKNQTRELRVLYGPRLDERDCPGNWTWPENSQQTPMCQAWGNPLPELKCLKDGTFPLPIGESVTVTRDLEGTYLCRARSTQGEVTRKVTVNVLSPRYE

T1 sequence (P02769 25-607 limits assumed): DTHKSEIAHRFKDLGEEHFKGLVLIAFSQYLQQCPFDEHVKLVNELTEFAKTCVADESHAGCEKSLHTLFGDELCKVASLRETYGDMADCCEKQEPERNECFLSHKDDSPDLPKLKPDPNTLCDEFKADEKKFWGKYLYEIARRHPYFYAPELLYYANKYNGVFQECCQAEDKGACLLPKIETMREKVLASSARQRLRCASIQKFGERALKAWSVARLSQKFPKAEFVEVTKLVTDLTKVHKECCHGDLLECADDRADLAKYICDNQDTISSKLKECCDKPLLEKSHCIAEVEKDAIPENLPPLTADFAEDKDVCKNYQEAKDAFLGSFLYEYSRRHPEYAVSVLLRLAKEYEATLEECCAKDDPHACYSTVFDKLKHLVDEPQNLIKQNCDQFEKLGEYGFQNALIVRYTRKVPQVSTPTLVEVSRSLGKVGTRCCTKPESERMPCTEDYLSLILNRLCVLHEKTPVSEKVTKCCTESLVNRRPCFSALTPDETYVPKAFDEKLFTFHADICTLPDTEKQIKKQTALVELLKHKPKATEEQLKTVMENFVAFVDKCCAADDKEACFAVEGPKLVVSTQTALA

binding result [1]: no binding | binding result [2]: no binding
B1: human αd I domain/IgG4 fusion protein (Fc fusion)
chain: HQEMDIVFLIDGSGSIDQNDFNQMKGFVQAVMGQFEGTDTLFALMQYSNLLKIHFTFTQFRTSPSQQSLVDPIVQLKGLTFTATGILTVVTQLFHHKNGARKSAKKILIVITDGQKYKDPLEYSDVIPQAEKAGIIRYAIGVGHAFQGPTARQELNTISSAPPQDHVFKVDNFAALGSIQKQLQEKIYAVEGTQSRASSSFQHEMSQEGFS[… human IgG4 Fc …]
notes: also called Iαd/IgG4; I domain chimera
